# Experimental data from the supplement of paper PMC3334620.
# In all, about 33,000 sequences were measured (“E-score (-0.5 to 0.5)”: median about -0.035, highest 2% from about 0.34 on). The list shows a part of the results.
# Target: T1, Mot3 (UniProt P54785)
# T1 sequence: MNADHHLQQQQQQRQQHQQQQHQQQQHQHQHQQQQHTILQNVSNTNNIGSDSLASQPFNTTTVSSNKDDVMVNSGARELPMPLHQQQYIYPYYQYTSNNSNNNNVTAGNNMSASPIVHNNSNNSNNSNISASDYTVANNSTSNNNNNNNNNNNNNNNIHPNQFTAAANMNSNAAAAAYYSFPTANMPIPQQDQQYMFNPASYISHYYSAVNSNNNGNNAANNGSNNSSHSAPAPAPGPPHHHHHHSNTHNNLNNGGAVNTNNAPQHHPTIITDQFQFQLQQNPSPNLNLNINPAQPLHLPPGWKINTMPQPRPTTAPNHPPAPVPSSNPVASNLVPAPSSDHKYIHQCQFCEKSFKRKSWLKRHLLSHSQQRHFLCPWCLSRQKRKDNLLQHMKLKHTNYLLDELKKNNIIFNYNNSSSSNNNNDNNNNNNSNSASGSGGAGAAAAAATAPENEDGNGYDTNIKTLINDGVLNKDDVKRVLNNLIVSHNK
# Assay: PBM E-score (8-mer binding enrichment) (E-score (-0.5 to 0.5)); higher = stronger / more preferred TF binding; most listed sequences are background and not binding sites
# Conditions: protein concentration: 200 nM; construct: GST-full length
# Method in brief: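 Universal all-10-mer Agilent arrays, double-stranded by primer extension on fresh or once-stripped slides, were probed with about 100-200 nM GST-tagged yeast transcription factors made by PURExpress. Fluorescent anti-GST detected bound protein, and masliner normalised the scans. E-scores from the Universal PBM Analysis Suite were given to each ungapped eight-base word pooled with its reverse complement.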
row,Sequence,PBM E-score
1,CCGTGTAA,0.403
2,CCACAAGC,-0.132
3,CAACGCCG,-0.0286
4,ACTCAGTA,0.0267
5,GACTCAGC,-0.144
6,AACAGAAG,0.0357
7,GCGGGGCA,-0.27
8,CAGCTTTC,-0.181
9,TCTGCGAA,-0.0732
10,CGAGCAAG,-0.136
11,ACAGTTCT,-0.132
12,GCGATTGA,-0.147
13,CTACGCGC,0.168
14,GCGGTGAC,-0.152
15,TAAGGCCA,0.211
16,ACGTGTCA,0.342
17,ACTCAATG,0.075
18,ACGATTCT,0.176
19,GTTTTATA,0.101
20,GAGGGTAA,-0.231
21,ACCTCGGG,-0.205
22,CATTTATC,0.0368
23,AACTCCCT,-0.118
24,ACAAAACC,0.219
25,GACAGATC,-0.135

row,Sequence,PBM E-score
1,CGCCGTAC,-0.00243
2,GACGACCC,-0.195
3,GCATCTAC,0.0529
4,CTGCTCTC,-0.0677
5,ACTCCGAG,-0.00559
6,AAGCTTTA,0.0683
7,CTCCTTTC,-0.144
8,CAGCGTAC,-0.0299
9,GGGTCGAC,-0.128
10,CTCCGGCA,-0.274
11,AATGTCGC,0.0295
12,ACACTTCC,-0.0917
13,GACCCAAC,-0.209
14,CCAAGGCA,0.458
15,ACCGTGTC,0.216
16,ATGGGTTC,-0.2
17,AGGGTATA,-0.013
18,TCAAATAA,-0.0852
19,ATTTCTCA,-0.148
20,CAGGTCGC,-0.225
21,CGGGGTAC,-0.191
22,ACTGTAGA,0.032
23,GCCTATCA,0.0862
24,CGTATAAA,0.223
25,ATGTGATC,0.245

row,Sequence,PBM E-score
1,CCATCACC,-0.108
2,GGTCGCAA,-0.0835
3,GCGGGGGA,-0.244
4,ATCACTTG,0.0864
5,ATATAGGA,0.176
6,CTACGTAG,0.216
7,AAGCGTCT,-0.234
8,GGATTTTA,-0.0248
9,TCTAATCA,-0.00325
10,CATGCTTA,0.118
11,AAATCCTG,0.0801
12,CACCGTAC,-0.00522
13,AGTGGCTA,-0.213
14,ACGAACAC,0.144
15,TGGAAACA,-0.129
16,GAGATTCA,-0.181
17,GTAATCGA,0.212
18,CCTAAAGA,0.0822
19,ATGTAAGC,0.267
20,TATTATCA,0.0573
21,CAATGACG,-0.076
22,AGGCCTTA,-0.0962
23,CGGCGTCA,-0.137
24,CTTTTTAA,0.0727
25,CTCTGCAG,-0.0721

row,Sequence,PBM E-score
1,AAGATCTT,0.0925
2,CGTTTCCA,-0.0535
3,CTCGTTTA,0.097
4,CAACTATG,0.0723
5,CAGGACTA,-0.16
6,CGATTTCA,0.0519
7,CCCTTGAC,-0.242
8,CGGAACTC,-0.29
9,ACTATCAA,0.0723
10,CCAGCCGA,-0.311
11,ATGAGAAC,0.00278
12,ATCATGAC,0.143
13,AATAGACC,-0.239
14,GATGTCAC,-0.0418
15,ACCGTAAT,-0.0455
16,ACAAGCGG,0.249
17,CGTTTCCC,-0.217
18,CCTACTCA,-0.046
19,GGATAACC,-0.143
20,CTCGAGAG,-0.177
21,AAGTTATC,0.0688
22,TGAACTAA,0.0207
23,AATGTACC,0.105
24,AGCCCCTA,-0.269
25,GAGGCCCA,-0.276

row,Sequence,PBM E-score
1,ACAGTGAA,0.046
2,GACCTGAC,-0.194
3,AGAGGGCG,-0.133
4,GTAGGAGA,-0.184
5,AAAGACAG,0.141
6,GGCATAAA,-0.108
7,CCCAGTAG,-0.042
8,AAGCGGAG,0.0428
9,CCCATCTC,-0.269
10,CTCCGTAA,0.0286
11,CGCGACAG,-0.0952
12,CGCACAGA,-0.0875
13,CCTCTGAG,-0.00393
14,TACCGCAA,0.119
15,CCCCCAAA,-0.183
16,ACATCCCC,-0.00997
17,ATGCCCCG,-0.323
18,AGAAACGA,0.0178
19,ACACGTTG,0.305
20,GAGATCGC,-0.0212
21,CCATGGTA,-0.0768
22,CATCCTGA,0.0269
23,ACGGTGAG,-0.142
24,CGAGACTA,-0.0793
25,CGCTTGGC,-0.0702

row,Sequence,PBM E-score
1,AGTTTAAC,0.0654
2,GATGCGGC,-0.145
3,CGGACCTC,-0.389
4,GCTATAGA,-0.197
5,CCGGAGTC,-0.231
6,CTGCCTGC,0.336
7,CACCCCTA,-0.314
8,AGTAGACC,-0.3
9,GTAGCCCA,-0.122
10,AGCCTGGC,-0.0899
11,CGGAACGC,-0.0837
12,GCAGGGGA,-0.253
13,AATCTCTA,-0.0669
14,CGTTGCAA,0.0242
15,ATACCCTA,-0.062
16,CTGTATCC,-0.115
17,CAAGCTCG,-0.0504
18,CCGTTGGC,-0.181
19,ATAAACGC,0.0644
20,GCTAAGAC,-0.121
21,CAATATGA,0.0247
22,CACCGCCG,-0.175
23,AGCCATGG,-0.166
24,AACGGCTT,-0.247
25,GCAGGTGA,-0.0497

row,Sequence,PBM E-score
1,CTCATGTC,0.191
2,CAGATGAG,-0.0581
3,ATCGGTTC,0.0968
4,AGCCTTCC,-0.137
5,TACGGCTA,-0.247
6,CTAGGGCC,-0.139
7,CCGATCAC,-0.0956
8,CGTGGGGA,-0.145
9,AGGGCCAT,-0.295
10,AGCCCTGC,-0.187
11,GTTCGTCA,-0.106
12,TAAACCGA,0.0216
13,CAGACGCG,-0.0957
14,AGCTCCGA,-0.14
15,CGGGCCCG,-0.192
16,CCGCTAAG,-0.146
17,AGTAGATG,-0.0168
18,CAGGCCAC,0.288
19,AGCACGCG,0.17
20,AGCTTGGC,-0.158
21,ACTCATTG,0.0532
22,GGGAGTAA,-7e-05
23,GTGACACA,0.0545
24,CTATTCAA,0.084
25,AGGGGTAC,-0.0837

row,Sequence,PBM E-score
1,ACCGGGAA,-0.0555
2,GGAGCCCA,-0.183
3,GACTGTAA,0.147
4,GGGGCCAA,-0.303
5,AGAGCTGG,-0.28
6,ACTTAGGA,0.12
7,GTAGTTAA,0.229
8,GCCTTTGA,0.304
9,GAGTAGGC,0.179
10,CACCTGGC,-0.125
11,ATACGGTA,-0.0734
12,ATACCACA,0.0752
13,GCGGTAGC,-0.235
14,ATAATGAT,0.0465
15,GAAAAAAC,0.136
16,CTTTCTCA,0.162
17,AGGTGCCA,-0.0193
18,AGATGGAG,-0.111
19,CTTGATGC,-0.0379
20,AAGAACTT,0.0188
21,ACCCAACC,-0.133
22,TCGGCAGA,-0.14
23,GAGACGAA,-0.172
24,GCGTCTCC,-0.056
25,CGTGTTCC,0.221

row,Sequence,PBM E-score
1,CGAGACCC,-0.0978
2,CTTCGTTC,-0.0566
3,CCAGGTGA,-0.0709
4,ACCGCTTC,-0.267
5,AGGGGGAC,-0.298
6,CCAATCTC,-0.0686
7,ACCTAACC,-0.00768
8,ACATGACA,0.343
9,AAATCAAG,0.0542
10,CCAAATAA,0.105
11,GTATCTTA,0.0793
12,ATGGTATG,0.0834
13,CCCCGATC,-0.356
14,CTATATTC,-0.0131
15,CTAATGGA,-0.297
16,ACGAGGCT,0.0334
17,GGGCATGA,-0.153
18,CCGAGCAG,-0.158
19,AACACCAG,-0.105
